# Assay results published in the supplement of paper PMC8728848.
# This is one part of the list.
# B1: DC-ASGPR Long (Homo sapiens) (protein)
# chain: MTRTYENFQYLENKVKVQGFKNGPLPLQSLLQRLRSGPCHLLLSLGLGLLLLVIICVVGFQNSKFQRDLVTLRTDFSNFTSNTVAEIQALTSQGSSLEETIASLKAEVEGFKQERQAGVSELQEHTTQKAHLGHCPHCPSVCVPVHSEMLLRVQQLVQDLKKLTCQVATLNNNASTEGTCCPVNWVEHQDSCYWFSHSGMSWAEAEKYCQLKNAHLVVINSREEQNFVQKYLGSAYTWMGLSDPEGAWKWVDGTDYATGFQNWKPGQPDDWQGHGLGGGEDCAHFHPDGGWNDDVCQRPYHWVCEAGLGQTSQESH
# Columns and labels:
# Test in all cases: glycan array binding signal (z-score within array); higher = stronger binding
# Details in all cases: glycan notation: IUPAC condensed, linker removed
# [1] = target: Gal(b1-4)GlcNAc(b1-3)Gal(b1-3)GlcNAc
# How it was run: (§1)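 The binding signal is a Z-score computed within each array. Data were drawn from 3228 arrays in the Consortium for Functional Glycomics database, restricted to those with a known protein sequence. Scores were averaged over arrays of the same protein sequence at different concentrations or buffers, and over linkers, and negative values can be taken as non-binding.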
# [2] = target: Gal(b1-4)GlcNAc(b1-3)Gal(b1-4)Glc
# How it was run: as §1
# [3] = target: Gal(b1-4)GlcNAc(b1-3)Gal(b1-4)GlcNAc
# How it was run: as §1
# [4] = target: Gal(b1-4)GlcNAc(b1-3)Gal(b1-4)GlcNAc(b1-2)Man(a1-3)[Gal(b1-4)GlcNAc(b1-3)Gal(b1-4)GlcNAc(b1-2)Man(a1-6)]Man(b1-4)GlcNAc(b1-4)GlcNAc
# How it was run: as §1
# [5] = target: Gal(b1-4)GlcNAc(b1-3)Gal(b1-4)GlcNAc(b1-2)Man(a1-3)[Gal(b1-4)GlcNAc(b1-3)Gal(b1-4)GlcNAc(b1-2)Man(a1-6)]Man(b1-4)GlcNAc(b1-4)[Fuc(a1-6)]GlcNAc
# How it was run: as §1
# [6] = target: Gal(b1-4)GlcNAc(b1-3)Gal(b1-4)GlcNAc(b1-2)[Gal(b1-4)GlcNAc(b1-3)Gal(b1-4)GlcNAc(b1-6)]Man(a1-6)[Gal(b1-4)GlcNAc(b1-3)Gal(b1-4)GlcNAc(b1-2)Man(a1-3)]Man(b1-4)GlcNAc(b1-4)GlcNAc
# How it was run: as §1
# [7] = target: Gal(b1-4)GlcNAc(b1-3)Gal(b1-4)GlcNAc(b1-2)[Gal(b1-4)GlcNAc(b1-3)Gal(b1-4)GlcNAc(b1-6)]Man(a1-6)[Gal(b1-4)GlcNAc(b1-3)Gal(b1-4)GlcNAc(b1-2)Man(a1-3)]Man(b1-4)GlcNAc(b1-4)[Fuc(a1-6)]GlcNAc
# How it was run: as §1
# [8] = target: Gal(b1-4)GlcNAc(b1-3)Gal(b1-4)GlcNAc(b1-3)Gal(b1-4)GlcNAc
# How it was run: as §1
# [9] = target: Gal(b1-4)GlcNAc(b1-3)Gal(b1-4)GlcNAc(b1-3)Gal(b1-4)GlcNAc(b1-2)Man(a1-3)[Gal(b1-4)GlcNAc(b1-3)Gal(b1-4)GlcNAc(b1-3)Gal(b1-4)GlcNAc(b1-2)Man(a1-6)]Man(b1-4)GlcNAc(b1-4)GlcNAc
# How it was run: as §1
# [10] = target: Gal(b1-4)GlcNAc(b1-3)Gal(b1-4)GlcNAc(b1-3)Gal(b1-4)GlcNAc(b1-2)Man(a1-3)[Gal(b1-4)GlcNAc(b1-3)Gal(b1-4)GlcNAc(b1-3)Gal(b1-4)GlcNAc(b1-2)Man(a1-6)]Man(b1-4)GlcNAc(b1-4)[Fuc(a1-6)]GlcNAc
# How it was run: as §1
# [11] = target: Gal(b1-4)GlcNAc(b1-3)Gal(b1-4)GlcNAc(b1-3)Gal(b1-4)GlcNAc(b1-2)[Gal(b1-4)GlcNAc(b1-3)Gal(b1-4)GlcNAc(b1-3)Gal(b1-4)GlcNAc(b1-6)]Man(a1-6)[Gal(b1-4)GlcNAc(b1-3)Gal(b1-4)GlcNAc(b1-3)Gal(b1-4)GlcNAc(b1-2)Man(a1-3)]Man(b1-4)GlcNAc(b1-4)[Fuc(a1-6)]GlcNAc
# How it was run: as §1
# [12] = target: Gal(b1-4)GlcNAc(b1-3)Gal(b1-4)GlcNAc(b1-3)Gal(b1-4)GlcNAc(b1-3)Gal(b1-4)GlcNAc(b1-2)Man(a1-3)[Gal(b1-4)GlcNAc(b1-3)Gal(b1-4)GlcNAc(b1-3)Gal(b1-4)GlcNAc(b1-3)Gal(b1-4)GlcNAc(b1-2)Man(a1-6)]Man(b1-4)GlcNAc(b1-4)GlcNAc
# How it was run: as §1
# [13] = target: Gal(b1-4)GlcNAc(b1-3)Gal(b1-4)GlcNAc(b1-3)Gal(b1-4)GlcNAc(b1-3)Gal(b1-4)GlcNAc(b1-2)Man(a1-3)[Gal(b1-4)GlcNAc(b1-3)Gal(b1-4)GlcNAc(b1-3)Gal(b1-4)GlcNAc(b1-3)Gal(b1-4)GlcNAc(b1-2)Man(a1-6)]Man(b1-4)GlcNAc(b1-4)[Fuc(a1-6)]GlcNAc
# How it was run: as §1
# [14] = target: Gal(b1-4)GlcNAc(b1-3)Gal(b1-4)GlcNAc(b1-3)Gal(b1-4)GlcNAc(b1-3)Gal(b1-4)GlcNAc(b1-2)[Gal(b1-4)GlcNAc(b1-3)Gal(b1-4)GlcNAc(b1-3)Gal(b1-4)GlcNAc(b1-3)Gal(b1-4)GlcNAc(b1-6)]Man(a1-6)[Gal(b1-4)GlcNAc(b1-3)Gal(b1-4)GlcNAc(b1-3)Gal(b1-4)GlcNAc(b1-3)Gal(b1-4)GlcNAc(b1-2)Man(a1-3)]Man(b1-4)GlcNAc(b1-4)[Fuc(a1-6)]GlcNAc
# How it was run: as §1
# [15] = target: Gal(b1-4)GlcNAc(b1-3)Gal(b1-4)GlcNAc(b1-3)Gal(b1-4)GlcNAc(b1-3)Gal(b1-4)GlcNAc(b1-3)Gal(b1-4)GlcNAc(b1-2)Man(a1-3)[Gal(b1-4)GlcNAc(b1-3)Gal(b1-4)GlcNAc(b1-3)Gal(b1-4)GlcNAc(b1-3)Gal(b1-4)GlcNAc(b1-3)Gal(b1-4)GlcNAc(b1-2)Man(a1-6)]Man(b1-4)GlcNAc(b1-4)GlcNAc
# How it was run: as §1
# [16] = target: Gal(b1-4)GlcNAc(b1-3)Gal(b1-4)GlcNAc(b1-3)Gal(b1-4)GlcNAc(b1-3)Gal(b1-4)GlcNAc(b1-3)Gal(b1-4)GlcNAc(b1-2)Man(a1-3)[Gal(b1-4)GlcNAc(b1-3)Gal(b1-4)GlcNAc(b1-3)Gal(b1-4)GlcNAc(b1-3)Gal(b1-4)GlcNAc(b1-3)Gal(b1-4)GlcNAc(b1-2)Man(a1-6)]Man(b1-4)GlcNAc(b1-4)[Fuc(a1-6)]GlcNAc
# How it was run: as §1
# [17] = target: Gal(b1-4)GlcNAc(b1-3)Gal(b1-4)GlcNAc(b1-3)Gal(b1-4)GlcNAc(b1-3)Gal(b1-4)GlcNAc(b1-3)Gal(b1-4)GlcNAc(b1-2)[Gal(b1-4)GlcNAc(b1-3)Gal(b1-4)GlcNAc(b1-3)Gal(b1-4)GlcNAc(b1-3)Gal(b1-4)GlcNAc(b1-3)Gal(b1-4)GlcNAc(b1-6)]Man(a1-6)[Gal(b1-4)GlcNAc(b1-3)Gal(b1-4)GlcNAc(b1-3)Gal(b1-4)GlcNAc(b1-3)Gal(b1-4)GlcNAc(b1-3)Gal(b1-4)GlcNAc(b1-2)Man(a1-3)]Man(b1-4)GlcNAc(b1-4)[Fuc(a1-6)]GlcNAc
# How it was run: as §1
# [18] = target: Gal(b1-4)GlcNAc(b1-3)Gal(b1-4)GlcNAc(b1-3)Gal(b1-4)GlcNAc(b1-3)Gal(b1-4)GlcNAc(b1-3)Gal(b1-4)GlcNAc(b1-3)Gal(b1-4)GlcNAc(b1-2)Man(a1-3)[Gal(b1-4)GlcNAc(b1-3)Gal(b1-4)GlcNAc(b1-3)Gal(b1-4)GlcNAc(b1-3)Gal(b1-4)GlcNAc(b1-3)Gal(b1-4)GlcNAc(b1-3)Gal(b1-4)GlcNAc(b1-2)Man(a1-6)]Man(b1-4)GlcNAc(b1-4)GlcNAc
# How it was run: as §1
# [19] = target: Gal(b1-4)GlcNAc(b1-3)Gal(b1-4)GlcNAc(b1-3)GalNAc
# How it was run: as §1
binder,measurement,setting,value
B1,glycan array binding signal (z-score),[1],-0.172
same,glycan array binding signal (z-score),[2],-0.074
same,glycan array binding signal (z-score),[3],-0.223
same,glycan array binding signal (z-score),[4],0.7
same,glycan array binding signal (z-score),[5],-0.788
same,glycan array binding signal (z-score),[6],-0.054
same,glycan array binding signal (z-score),[7],-0.361
same,glycan array binding signal (z-score),[8],-0.307
same,glycan array binding signal (z-score),[9],0.095
same,glycan array binding signal (z-score),[10],-0.492
same,glycan array binding signal (z-score),[11],0.493
same,glycan array binding signal (z-score),[12],0.263
same,glycan array binding signal (z-score),[13],-0.462
same,glycan array binding signal (z-score),[14],0.646
same,glycan array binding signal (z-score),[15],1
same,glycan array binding signal (z-score),[16],-0.525
same,glycan array binding signal (z-score),[17],0.862
same,glycan array binding signal (z-score),[18],-0.269
same,glycan array binding signal (z-score),[19],-0.133
